About 4,300 (8.3%) of roughly 52,000 compounds were called active. Cut-off read from the data, not from the text of the source: active = survival mostly below about 52% (no sharp cut-off); inactive = mostly above about 56%. This is one part of the list.
system: DeltatarO mutant; experiment: S. aureus survival, RN4220 and DeltatarO strains – OD600, teichoic acid synthesis inhibitors, primary screen (AID 463173); conditions: S. aureus RN4220 wild type/DeltatarO growth, OD600, 18 h, active compounds read low, screened at 18.75 µg/mL (by protocol)

Question: Which survival does the source give for `Cn1c(=O)oc2cc(S(=O)(=O)N3CCCC(C(=O)NCCc4ccc(Cl)cc4)C3)ccc21` (centres undefined) here?
Answer: inactive: 86%

Question: `COc1ccccc1CNS(=O)(=O)c1ccc2c(c1)NC(=O)C(C)C(=O)N2` (centres undefined) was tested. Which survival did it give?
Answer: inactive: 71%

Question: With `Cc1ccc2occ(CC(=O)N(Cc3ccccc3Cl)C3CCS(=O)(=O)C3)c2c1` (centres undefined) as the compound, how does the survival read?
Answer: inactive: 77%

Question: `O=C(CSc1oc(-c2ccccc2)nc1S(=O)(=O)c1ccc(Cl)cc1)Nc1ccc(F)cc1` was tested. Which survival did it give?
Answer: inactive: 162%

Question: Which survival does the source give for `CC1CCC(Nc2nc3c(-c4ccc(Cl)cc4)nnn3c3ccccc23)CC1` (centres undefined) here?
Answer: active: 8%

Question: For `CCn1c(SC)nnc1C1CCCN1CC(=O)N1CCN(Cc2ccc3c(c2)OCO3)CC1` (centres undefined), which survival is on record?
Answer: inactive: 79%

Question: Which survival does the source give for `CC(=O)c1ccc(NC(=O)CN2C(=O)CCc3ccccc32)cc1` here?
Answer: inactive: 84%

Question: How did the survival turn out when `CCOc1ccc(N(C)C(=O)CS(=O)(=O)c2cccc3nsnc23)cc1` was run?
Answer: inactive: 73%

Question: How did the survival turn out when `COC(=O)CSc1ncc2c(n1)-c1ccccc1N(Cc1ccccc1C)S2(=O)=O` was run?
Answer: inactive: 99%

Question: With `O=C(Cn1cc(SCc2ccc(C(F)(F)F)cc2)c2ccccc21)N1CCOCC1` as the compound, how does the survival read?
Answer: inactive: 85%

Question: `Cc1cccc(-c2nc(C)c(CCNC(=O)C(=O)Nc3cccc(Cl)c3C)s2)c1` was tested. Which survival did it give?
Answer: inactive: 86%

Question: For `O=C(NCc1ccccc1)c1cc2sccc2n1Cc1ccc(Cl)cc1`, which survival is on record?
Answer: inactive: 101%

Question: `COC(=O)c1ccccc1NC(=O)Cn1c(CCC(=O)O)ccc1-c1cccs1` was tested. Which survival did it give?
Answer: inactive: 54%

Question: Which survival does the source give for `Cc1ccc2c(c1)c1c3n2CCN(C(=O)Cn2c(-c4ccccc4)noc2=O)C3CCC1` (centres undefined) here?
Answer: inactive: 90%

Question: `Cc1ccc(-c2nc(-c3cc4c([nH]c3=O)CC(C)(C)CC4=O)sc2C)cc1` was tested. Which survival did it give?
Answer: inactive: 89%

Question: For `O=C(c1ccco1)n1nc(-c2ccccc2)nc1NCc1ccc(Cl)cc1`, which survival is on record?
Answer: inactive: 91%

Question: `Cc1nn(-c2ccccc2)c2c1N(CCCC(=O)NCc1ccc(N(C)C)cc1)C(=O)CS2` was tested. Which survival did it give?
Answer: inactive: 87%

Question: With `CCC(=O)N1c2ccccc2CC1C(=O)N1CCN(c2cccc(Cl)c2)CC1` (centres undefined) as the compound, how does the survival read?
Answer: inactive: 77%

Question: How did the survival turn out when `COc1ccc(CC(=O)Nc2sc3c(c2C(=O)Nc2cccc(Cl)c2)CCCCC3)cc1` was run?
Answer: inactive: 59%

Question: Which survival does the source give for `CCC(=O)N1CCc2cc(S(=O)(=O)CCC(=O)Nc3ccc(OC(F)(F)F)cc3)ccc21` here?
Answer: inactive: 83%

Question: `COc1ccc2nc3oc(C(=O)N4CCN(c5cc(C)ccc5C)CC4)cc3cc2c1` was tested. Which survival did it give?
Answer: inactive: 107%

Question: With `COc1ccccc1N1CCN(C(=O)C(CCSC)NS(=O)(=O)c2ccc3c(c2)oc(=O)n3C)CC1` (centres undefined) as the compound, how does the survival read?
Answer: inactive: 87%

Question: For `CC(C)Oc1ccc(CNC(=O)CCCN2C(=O)CCn3nc(-c4cccn4C)cc32)cc1`, which survival is on record?
Answer: inactive: 95%

Question: `COc1ccc(N2C(=O)CS(=O)(=O)C23C(=O)N(Cc2cccc(F)c2)c2ccccc23)cc1OC` (centres undefined) was tested. Which survival did it give?
Answer: inactive: 73%

Question: `Cc1ccc(C)c(S(=O)(=O)c2nnn3c2nc(Nc2ccc(C)c(C)c2)c2sccc23)c1` was tested. Which survival did it give?
Answer: inactive: 77%

Question: With `Cc1cc(=O)[nH]c2nnc(SCc3ccc(F)cc3)n12` as the compound, how does the survival read?
Answer: inactive: 78%

Question: How did the survival turn out when `CCOC(=O)c1ccc(-n2c(CCC(=O)O)ccc2-c2ccc(Br)cc2)cc1` was run?
Answer: active: 19%

Question: How did the survival turn out when `COc1ccc(Cn2c(SCC(=O)NCc3ccc(Cl)cc3)nc3ccsc3c2=O)cc1` was run?
Answer: inactive: 85%

Question: For `CC1CN(CN2C(=O)CCC2=O)CC(C)O1` (centres undefined), which survival is on record?
Answer: inactive: 78%

Question: How did the survival turn out when `Cc1cc(Cl)ccc1OCC(=O)Nc1c(Cl)ccc2nsnc12` was run?
Answer: inactive: 77%

Question: With `O=C(Nc1c(C(=O)N2CCN(c3ccccc3)CC2)oc2ccccc12)c1ccc(Br)o1` as the compound, how does the survival read?
Answer: inactive: 81%

Question: How did the survival turn out when `O=C(NCc1cccs1)c1ccc(Cn2c(SCc3ccccc3)nc3cccnc32)cc1` was run?
Answer: inactive: 71%

Question: Which survival does the source give for `O=C(OCC1CCNCC1)c1ccc2c(c1)OCO2` here?
Answer: inactive: 94%

Question: For `COc1cccc(CNCCSc2nnnn2C)c1OCc1ccccc1Cl`, which survival is on record?
Answer: inactive: 65%

Question: For `Cc1nn2c(=O)cc(COC(=O)c3ccco3)nc2s1`, which survival is on record?
Answer: inactive: 89%

Question: For `COc1cccc(CNS(=O)(=O)c2ccc3c(c2)CCN3C(=O)C2CCC2)c1`, which survival is on record?
Answer: inactive: 68%

Question: For `CCc1cc2ccccc2nc1Cl`, which survival is on record?
Answer: inactive: 56%

Question: How did the survival turn out when `O=C(Nc1ccc(F)cc1)N1CCN(c2ccccc2F)CC1` was run?
Answer: inactive: 179%

Question: For `Cn1c(=O)c2c(nc(SCC(=O)Nc3ccccc3)n2Cc2ccccc2F)n(C)c1=O`, which survival is on record?
Answer: active: 43%

Question: For `CCOc1ccc(CNC(=O)CSc2cc(=O)n(CC)c3ccccc23)cc1`, which survival is on record?
Answer: inactive: 62%

Question: With `Nc1c(C(=O)Nc2ccc(OC(F)(F)F)cc2)nnn1Cc1ccccc1` as the compound, how does the survival read?
Answer: inactive: 83%

Question: For `COCCN(C(=O)c1ccccc1)c1nnc(-c2ccncc2)s1`, which survival is on record?
Answer: inactive: 94%

Question: `CCc1cccc(C)c1Nc1c(-c2ccccc2)nc2sccn12` was tested. Which survival did it give?
Answer: inactive: 31%

Question: Which survival does the source give for `Fc1ccc(CNc2ncnc3onc(-c4ccc(F)cc4)c23)cc1` here?
Answer: inactive: 91%

Question: How did the survival turn out when `CCc1c(CN2CCN(c3cccc(C)c3C)CC2)csc1C` was run?
Answer: inactive: 76%

Question: Which survival does the source give for `Cc1ccc(C#N)c(=O)n1CC(=O)Nc1ccccc1C(F)(F)F` here?
Answer: inactive: 162%

Question: Which survival does the source give for `O=C(C1COc2ccccc2O1)N(Cc1cccnc1)c1nc2ccc(Cl)cc2s1` (centres undefined) here?
Answer: inactive: 76%

Question: With `CSC1=NC2(CCN(C(=O)NC3CCCCC3)CC2)N=C1c1ccc(C)cc1` as the compound, how does the survival read?
Answer: inactive: 67%

Question: `COc1ccc(N2Cc3cccc(C(=O)Nc4cc(C)cc(C)c4)c3C2=O)cc1` was tested. Which survival did it give?
Answer: inactive: 80%

Question: With `O=C(C1COc2ccccc2O1)N1CCN(c2nc3ccc(F)cc3s2)CC1` (centres undefined) as the compound, how does the survival read?
Answer: inactive: 88%

Question: Which survival does the source give for `Cc1noc(-c2ccc(-c3noc(-c4cccc(F)c4)n3)cc2)n1` here?
Answer: inactive: 76%

Question: `NC(=O)C1CCN(C(=O)c2cccc(NC(=O)c3nsc4ccccc34)c2)CC1` was tested. Which survival did it give?
Answer: inactive: 88%

Question: For `Cc1cc(F)ccc1NC(=O)CCS(=O)(=O)c1ccc2c(c1)CC(C)N2C(=O)C1CC1` (centres undefined), which survival is on record?
Answer: inactive: 81%

Question: With `COc1ccccc1CNC(=O)CCn1nc(C)c2c(C)n(-c3ccccc3)nc2c1=O` as the compound, how does the survival read?
Answer: inactive: 71%

Question: With `O=C(c1ccccc1NS(=O)(=O)c1cccc2nsnc12)N1CCOCC1` as the compound, how does the survival read?
Answer: inactive: 80%

Question: Which survival does the source give for `Brc1ccc(-c2nc3ccccn3c2Nc2ccc3c(c2)OCCO3)o1` here?
Answer: inactive: 85%

Question: How did the survival turn out when `O=S(=O)(c1ccccc1)c1nnn2c1nc(NCc1ccc(F)cc1)c1sccc12` was run?
Answer: inactive: 92%

Question: How did the survival turn out when `Cc1oc(-c2ccc(Cl)cc2)nc1CS(=O)CC(=O)N1CCN(c2cccc(C(F)(F)F)c2)CC1` (centres undefined) was run?
Answer: inactive: 99%

Question: With `COc1cccc(N2CCN(c3ncnc4c3nc3n4CCCCC3)CC2)c1` as the compound, how does the survival read?
Answer: active: 20%

Question: `CCOc1no[n+]([O-])c1-c1ccccc1` was tested. Which survival did it give?
Answer: inactive: 90%

Question: With `O=C(NC1CCCCC1)c1ccc(Cn2c(SCc3ccc(F)cc3)nc3cccnc32)cc1` as the compound, how does the survival read?
Answer: active: 32%

Question: With `Cc1ccc2c(c1)-c1onc(C(=O)N3CCN(c4ccc(Cl)cc4)CC3)c1CO2` as the compound, how does the survival read?
Answer: inactive: 63%

Question: `CCOC(=O)N1CCN(Cc2nc3cc(NC(=O)c4ccccc4[N+](=O)[O-])ccc3n2C(C)C)CC1` was tested. Which survival did it give?
Answer: inactive: 91%

Question: With `Cc1ccc(-n2c3nc(=O)[nH]c(=O)c-3cc3c(C)nn(-c4ccccc4)c32)cc1Cl` as the compound, how does the survival read?
Answer: inactive: 85%

Question: Which survival does the source give for `Cc1cccc(C)c1NC(=O)NCCc1c[nH]c2ccccc12` here?
Answer: inactive: 78%

Question: For `CCCNC(=O)C1CCC(Cn2c(=O)c3sccc3n(Cc3ccccc3F)c2=O)CC1` (centres undefined), which survival is on record?
Answer: inactive: 80%

Question: With `COCCCn1c(=N)c(C(=O)NCc2ccco2)cc2c(=O)n3ccccc3nc21` as the compound, how does the survival read?
Answer: inactive: 152%

Question: Which survival does the source give for `CCCN(CCC)CC(O)Cn1cc(/C=C/C(=O)c2ccc(C)cc2)c2ccccc21` (centres undefined) here?
Answer: active: -2%

Question: With `COc1ccc(NC(=O)c2cc(S(=O)(=O)N3CCCCCC3)cn2C)c(OC)c1` as the compound, how does the survival read?
Answer: inactive: 80%

Question: Which survival does the source give for `CC(C(=O)NCc1ccc(Cl)cc1)n1ccc2cc(S(=O)(=O)N3CCCCCC3)ccc21` (centres undefined) here?
Answer: inactive: 99%

Question: How did the survival turn out when `CCOC(=O)c1c(S(=O)(=O)N2CCC(C(=O)NCc3ccc(F)cc3)CC2)c(C)n(C)c1C` was run?
Answer: inactive: 79%

Question: How did the survival turn out when `CN(C)S(=O)(=O)c1ccc2c(c1)N(CC(=O)Nc1ccc(OC(F)(F)F)cc1)C(=O)CS2` was run?
Answer: inactive: 78%

Question: With `C=Cc1ccc(Cn2c(C(=O)O)c(CNC3CCCC3)c3ccc(C)cc32)cc1` as the compound, how does the survival read?
Answer: inactive: 89%

Question: With `Cc1cccc(N(C)C(=O)CCS(=O)(=O)c2ccc3c(c2)oc(=O)n3C)c1` as the compound, how does the survival read?
Answer: inactive: 99%

Question: How did the survival turn out when `COc1ccc(OCC(=O)NC2CC(=O)N(c3cccc(OC)c3)C2)cc1` (centres undefined) was run?
Answer: active: 0%

Question: Which survival does the source give for `O=C(/C=C/c1ccco1)Nc1cccc(-c2nc3ccccc3o2)c1` here?
Answer: inactive: 76%

Question: How did the survival turn out when `Cc1ccccc1-c1noc(-c2cccnc2NCc2ccco2)n1` was run?
Answer: inactive: 52%

Question: `CCOC(=O)c1c(C)[nH]c(C)c1S(=O)(=O)N1CCC(C(=O)N2CCN(c3cccc(Cl)c3)CC2)CC1` was tested. Which survival did it give?
Answer: inactive: 94%

Question: `Clc1ccc2[nH]c3nc4ccccc4nc3c2c1` was tested. Which survival did it give?
Answer: inactive: 78%

Question: For `CC(=O)N1CCc2cc(C(=O)C[n+]3ccccc3)ccc21`, which survival is on record?
Answer: inactive: 91%

Question: Which survival does the source give for `O=C(NCc1ccccc1Cl)C1CCCN(S(=O)(=O)c2cccc3nsnc23)C1` (centres undefined) here?
Answer: inactive: 91%

Question: Which survival does the source give for `COc1ccc(OC)c(CNC(=O)c2c3c(nc4ccccc24)C(=O)N(C2CCCCC2)C3)c1` here?
Answer: inactive: 93%

Question: `O=C1c2cccc3c(N4CCCC4)ccc(c23)C(=O)N1c1ccccc1` was tested. Which survival did it give?
Answer: inactive: 96%

Question: For `CCC(=O)N1CCc2cc(Br)cc(S(=O)(=O)N3CCN(c4ccc(C)cc4)C(C)C3)c21` (centres undefined), which survival is on record?
Answer: inactive: 140%

Question: With `CCOC(=O)c1c(C)[nH]c(C)c1S(=O)(=O)N1CCC(C(=O)N2CCN(c3ccccc3)CC2)CC1` as the compound, how does the survival read?
Answer: inactive: 90%

Question: How did the survival turn out when `COc1ccc(CNC(=O)c2cc(-c3ccc(C)cc3)nc3n[nH]c(-c4ccc(Br)cc4)c23)cc1` was run?
Answer: inactive: 74%

Question: For `NS(=O)(=O)c1ccc(NC(=O)CN2C(=O)COc3ccc(Cl)cc32)cc1`, which survival is on record?
Answer: inactive: 71%

Question: For `O=C(O)c1ccc2nc(-c3cc4cccc(O)c4oc3=O)[nH]c2c1`, which survival is on record?
Answer: inactive: 75%

Question: For `Cc1ccc(C)c(S(=O)(=O)c2nnn3c2nc(NC(C)C)c2sccc23)c1`, which survival is on record?
Answer: inactive: 40%
